From the supplement of paper PMC7125110
± gives the standard error. This sample is rich in variants without activity.

B1: glmS ribozyme (parent)
chain: AUAAAAGCGCCAGAACUACAGAAAUGUAGUUGACGAGGAGGAGGUUUAUCGAAUUUUCGGCGGAUGCCUCCAAA

Columns and labels:
Details in all cases: with glucosamine-6-phosphate
glucosamine-6-phosphate [1] = variants of: B1; assay: self-cleavage kobs at 40 uM GlcN6P; higher = faster cleavage; RNA array
Outline: (§1)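 Barcoded glmS ribozyme variants on sequenced MiSeq chips were transcribed in situ by E. coli RNA polymerase and tracked through a hybridised Cy3 probe at 37 °C. Glucosamine-6-phosphate (40 μM to 10 mM) in HEPES/KCl/Mg(OAc)2 buffer was flowed in, and tiles were imaged over ~14 h. Signals were normalised to baseline and to non-cleaving reference variants; per-tile medians were fit to one- or two-exponential decays to give kobs. kcat and KM came from weighted Michaelis–Menten fits across concentrations.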

glucosamine-6-phosphate [2] = variants of: B1; assay: self-cleavage kobs at 640 uM GlcN6P; higher = faster cleavage; RNA array
Outline: as §1

glucosamine-6-phosphate [3] = variants of: B1; assay: self-cleavage kobs at 160 uM GlcN6P; higher = faster cleavage; RNA array
Outline: as §1

glucosamine-6-phosphate [4] = variants of: B1; assay: self-cleavage kobs at 2500 uM GlcN6P; higher = faster cleavage; RNA array
Outline: as §1

glucosamine-6-phosphate [5] = variants of: B1; assay: self-cleavage kobs at 10000 uM GlcN6P; higher = faster cleavage; RNA array
Outline: as §1

Variant	self-cleavage kobs at 40 uM GlcN6P (glucosamine-6-phosphate [1])	self-cleavage kobs at 640 uM GlcN6P (glucosamine-6-phosphate [2])	self-cleavage kobs at 160 uM GlcN6P (glucosamine-6-phosphate [3])	self-cleavage kobs at 2500 uM GlcN6P (glucosamine-6-phosphate [4])	self-cleavage kobs at 10000 uM GlcN6P (glucosamine-6-phosphate [5])
C16G A42C	< 1e-05 s⁻¹	< 1e-05 s⁻¹	< 1e-05 s⁻¹	< 1e-05 s⁻¹	< 1e-05 s⁻¹
G13U U65C	< 1e-05 s⁻¹				
A28C G63U	< 1e-05 s⁻¹			< 1e-05 s⁻¹	< 1e-05 s⁻¹
C11U G41A	< 1e-05 s⁻¹				
G13U G35C	< 1e-05 s⁻¹				
G13A G32U C71G	< 1e-05 s⁻¹				
C16A A48U A52C C61U U65A	< 1e-05 s⁻¹				< 1e-05 s⁻¹
G13U G63A	< 1e-05 s⁻¹	< 1e-05 s⁻¹			< 1e-05 s⁻¹
A15U G37C C71G	< 1e-05 s⁻¹				< 1e-05 s⁻¹
A14C A53G	0.00012 ± 1.8e-05 s⁻¹				
A12C G13A A14G A15U C16A U17C A18U C19A A20C A36G	< 1e-05 s⁻¹				
C16U U30A U31G A53U G59U	< 1e-05 s⁻¹			< 1e-05 s⁻¹	
C11U U45G C68G	< 1e-05 s⁻¹	< 1e-05 s⁻¹	< 1e-05 s⁻¹	< 1e-05 s⁻¹	< 1e-05 s⁻¹
A14C G40U U46C C68U	< 1e-05 s⁻¹				
A15G G60A	< 1e-05 s⁻¹		< 1e-05 s⁻¹		
A14U G62C	< 1e-05 s⁻¹			< 1e-05 s⁻¹	
G29C A42U U65C	< 1e-05 s⁻¹				
A14C C16U	5.34e-05 ± 1.1e-05 s⁻¹	0.000451 ± 4.8e-05 s⁻¹	0.000144 ± 1.9e-05 s⁻¹	0.000655 ± 7.7e-05 s⁻¹	0.00118 ± 0.00016 s⁻¹
G13A A48G	< 1e-05 s⁻¹	< 1e-05 s⁻¹	< 1e-05 s⁻¹	< 1e-05 s⁻¹	< 1e-05 s⁻¹
C16G U31C U45C	< 1e-05 s⁻¹				
A14C G41U C61U U65G	< 1e-05 s⁻¹			< 1e-05 s⁻¹	< 1e-05 s⁻¹
C11U A42C U56A C68A	< 1e-05 s⁻¹				< 1e-05 s⁻¹
G13A A14U U31C	7.34e-05 ± 1.8e-05 s⁻¹				
A12U G13C G35U A48U	< 1e-05 s⁻¹				
A12U G51U U56A U69G	< 1e-05 s⁻¹				
A12G G44C C67G	< 1e-05 s⁻¹				0.000225 ± 4.3e-05 s⁻¹
G13U G29C A48C G62A C71G	< 1e-05 s⁻¹				
C11U G13C C16A U49A	< 1e-05 s⁻¹	< 1e-05 s⁻¹	< 1e-05 s⁻¹		
